Measurements taken from paper PMC3656144.
No constants are given. Whether binding was seen depends on the method and setting. In cells and extracts the contact can be indirect. Some binding calls cover weakened binding; strength is not graded here. Where a sequence is shown, tags or fusion partners need not be part of it.

Experiments:
APA-2::GFP (C. elegans) = biological target: T1, APA-2::GFP (C. elegans) (UniProt Q22601); experiment: co-IP; IP with GFP antibody from lysates of animals co-expressing an mCherry fusion and a GFP fusion (control: mCherry fusion alone); blots with mCherry and GFP antibodies
T1 sequence: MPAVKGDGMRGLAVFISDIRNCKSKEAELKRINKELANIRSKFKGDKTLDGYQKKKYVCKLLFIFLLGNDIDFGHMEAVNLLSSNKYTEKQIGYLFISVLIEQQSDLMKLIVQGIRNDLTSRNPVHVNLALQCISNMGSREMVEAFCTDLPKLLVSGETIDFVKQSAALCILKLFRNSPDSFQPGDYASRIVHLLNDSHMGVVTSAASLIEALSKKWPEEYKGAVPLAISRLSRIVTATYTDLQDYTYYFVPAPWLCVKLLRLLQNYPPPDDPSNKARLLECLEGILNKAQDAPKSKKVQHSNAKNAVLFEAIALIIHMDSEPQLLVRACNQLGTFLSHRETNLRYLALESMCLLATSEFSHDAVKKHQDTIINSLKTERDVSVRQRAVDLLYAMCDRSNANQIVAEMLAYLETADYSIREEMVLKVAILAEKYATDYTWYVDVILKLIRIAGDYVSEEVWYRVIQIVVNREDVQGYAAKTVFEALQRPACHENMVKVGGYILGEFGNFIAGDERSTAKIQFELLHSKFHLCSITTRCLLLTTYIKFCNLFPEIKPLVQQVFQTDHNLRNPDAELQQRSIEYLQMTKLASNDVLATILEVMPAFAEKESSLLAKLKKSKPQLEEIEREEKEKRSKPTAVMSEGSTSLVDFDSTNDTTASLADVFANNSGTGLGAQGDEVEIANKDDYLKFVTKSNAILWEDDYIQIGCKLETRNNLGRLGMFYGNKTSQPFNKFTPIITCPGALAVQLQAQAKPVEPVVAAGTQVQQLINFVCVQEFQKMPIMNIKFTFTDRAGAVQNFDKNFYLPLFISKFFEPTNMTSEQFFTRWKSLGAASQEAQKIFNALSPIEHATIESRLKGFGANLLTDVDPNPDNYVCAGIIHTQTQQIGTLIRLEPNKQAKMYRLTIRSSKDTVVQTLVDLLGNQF

DPY-23::GFP (C. elegans) = biological target: T2, DPY-23::GFP (C. elegans) (UniProt P35603); experiment: as above
T2 sequence: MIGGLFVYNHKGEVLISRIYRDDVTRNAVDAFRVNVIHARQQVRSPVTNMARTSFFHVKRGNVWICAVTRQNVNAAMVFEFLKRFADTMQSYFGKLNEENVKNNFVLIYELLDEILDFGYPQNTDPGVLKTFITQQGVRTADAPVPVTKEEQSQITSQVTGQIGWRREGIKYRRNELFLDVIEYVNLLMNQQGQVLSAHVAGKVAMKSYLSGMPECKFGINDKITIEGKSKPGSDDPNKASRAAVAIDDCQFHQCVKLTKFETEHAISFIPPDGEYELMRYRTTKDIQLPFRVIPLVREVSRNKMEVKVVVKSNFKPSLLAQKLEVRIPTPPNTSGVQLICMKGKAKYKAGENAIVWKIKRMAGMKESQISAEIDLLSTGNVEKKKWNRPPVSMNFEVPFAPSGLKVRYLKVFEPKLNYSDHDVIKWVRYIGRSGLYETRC

B1: LST-4::mCherry (protein, UniProt Q8I4E2 1-566)
chain: MAQVKAEYDFQSQPNTGELSISAGEVLTVIRENIDGGWIEGRNVRGSVGLFPESYVTPYQASRPPPVLPPPLPPTSSGPPAASSRPFDDWGGASEVAAPPSYGAQHHHQPTPSVPEVTRSSYPSQNDDFDDEWTDEDDEQEPTRPNVQSSIGSNSRRDLSRSHSEHGGPDRGSNKVNKNINRFSNFVKSGVEAYVIGESKTTSQISERHEVVMNNGIIQWKPIQQYYTCIVDKPKKESKLKGLKSFIAYSITSSLTNIQRQVSRRYKHFDWLHEQLSAKYVLIPIPPLPEKQVAGRYEEDLIDHRKHILQLWVNKICRHPVLSQSEVWLHFISCTDEKDWKNGKRRAEKDEYIGGAFLNCITVPHQPLDPNNVDMQVERFQRSVKTSEEAMRVMQERMNMFQKVFAGPVKQNWQKMGSAFKTLQQSFEIDETVASRRLTEALAYTASEYHEIGQVFDAHTKNDMEPVLENLYSYKGTVQNVPDIIQVHKQAVQKFRDSEGRLSSAEAEKMKQRIDAMSYTVIAEVQHQTAEKVEDMKSTMGTYLKKQAMFYQEVATKLTSLAARYD
binding (APA-2::GFP (C. elegans)): binds | binding (DPY-23::GFP (C. elegans)): binds
